Over roughly 81,000 sequences, “one-hybrid fitness for binding parS DNA” has its median near -0.17; the highest 2% begin near 0.51. The list shows a part of the results.
B1: Caulobacter ParB omega fusion; a variant is named by its letters at X, in order, B8GW30 (parent)
chain: MESVVVGEPGMSEGRRGLGRGLSALLGEVDAAPAQAPGEQLGGSREAPIEILQRNPDQPRRTFREEDLEDLSNSIREKGVLQPILVRPSPDTAGEYQIVAGERAWRAAQRAGLKTVPIMVRELDDLAVLEIGIIENVQRADLNVLEEALSYKVLMEKFERTQENIAQTIGKSXSHVANXMRLLXLPDEVQSYLVSGELTAXHARAIAAAADPVALAKQIIEGGLSVRETEALARKAPNLSAGKSKGGRPPRVKDTDTQALESDLSSVLGLDVSIDHRGSTGTLTITYATLEQLDDLCNRLTRGI

Variants of: B1
Test: one-hybrid fitness for binding parS DNA (scaled: cognate 1, non-cognate 0); higher = stronger binding
Settings: with parS DNA site
How it was run: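 Bacterial one-hybrid selection in E. coli USO rpoZ- hisB- pyrF- with a HIS3 reporter carrying the site 19 bp from the promoter, screening Caulobacter ParB libraries with four specificity codons randomised (NNS). Cells grew 48 hours at 37°C on M9-minus-histidine plus 0.1 mM IPTG and 5 mM 3-AT. Plasmids before and after selection were Illumina-sequenced, three replicate libraries pooled, and variants under 10 reads dropped. Fitness is the log change in variant-to-wild-type read ratio, rescaled to cognate 1, non-cognate 0.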

Variant	one-hybrid fitness for binding parS DNA
QEAR	≤ 0.2
WHSN	≤ 0.2
RVHN	0.425
GGMM	≤ 0.2
RYRA	0.727
QVMN	≤ 0.2
ATTK	≤ 0.2
VEWC	≤ 0.2
WIMN	≤ 0.2
ATAT	≤ 0.2
TFPG	≤ 0.2
GSHI	≤ 0.2
SDCS	≤ 0.2
NHTM	≤ 0.2
PLIA	≤ 0.2
PNFC	≤ 0.2
SPNE	≤ 0.2
TSAG	≤ 0.2
HMNR	≤ 0.2
KDMC	≤ 0.2
KEPS	≤ 0.2
LEAL	≤ 0.2
CDAG	≤ 0.2
NHTI	≤ 0.2
YCYV	≤ 0.2
RQWY	0.418

Variant	one-hybrid fitness for binding parS DNA
TCER	≤ 0.2
RTQP	≤ 0.2
CGQG	≤ 0.2
LPPI	≤ 0.2
TSFN	≤ 0.2
WRPT	≤ 0.2
YKTL	≤ 0.2
RMSY	0.487
VFHS	≤ 0.2
GWVS	≤ 0.2
LMSV	≤ 0.2
HWNT	≤ 0.2
PVYS	≤ 0.2
LVAV	≤ 0.2
QMSH	≤ 0.2
SNHH	≤ 0.2
GIQC	≤ 0.2
NHNP	≤ 0.2
EAKL	≤ 0.2
EEYS	0.252
VSQD	≤ 0.2
KRPN	≤ 0.2
GLAR	≤ 0.2
PIEM	≤ 0.2
TRDN	≤ 0.2
KKIL	≤ 0.2

Variant	one-hybrid fitness for binding parS DNA
HHRC	≤ 0.2
TVAG	≤ 0.2
IICG	≤ 0.2
SHYM	≤ 0.2
SKKH	≤ 0.2
NNLR	≤ 0.2
RKYM	0.267
LGIT	≤ 0.2
IYPV	≤ 0.2
FCYS	≤ 0.2
TSEY	≤ 0.2
AFDV	≤ 0.2
YHLN	≤ 0.2
RAWD	≤ 0.2
RGWW	≤ 0.2
CQPI	≤ 0.2
DMQP	≤ 0.2
FSWL	≤ 0.2
WRMN	≤ 0.2
LEWS	≤ 0.2
KLKI	≤ 0.2
HNHG	≤ 0.2
WCQS	≤ 0.2
ATNR	≤ 0.2
QWGI	≤ 0.2
QPTP	≤ 0.2

Variant	one-hybrid fitness for binding parS DNA
VCRN	≤ 0.2
KGER	≤ 0.2
SRLD	≤ 0.2
NWHS	≤ 0.2
WTGE	≤ 0.2
RCFD	≤ 0.2
LENE	≤ 0.2
RDRF	≤ 0.2
DGAR	≤ 0.2
RCAS	1.01
AVRR	≤ 0.2
GHNR	≤ 0.2
PIVW	≤ 0.2
KDPP	≤ 0.2
DIEW	≤ 0.2
PCTV	≤ 0.2
TYRD	≤ 0.2
SLYC	≤ 0.2
GHEF	≤ 0.2
QIMG	≤ 0.2
SLLW	≤ 0.2
ILAV	≤ 0.2
VFVC	≤ 0.2
TTVV	≤ 0.2
LIQR	≤ 0.2
NILC	≤ 0.2

Variant	one-hybrid fitness for binding parS DNA
LDHW	≤ 0.2
RASD	≤ 0.2
STNT	≤ 0.2
HIPD	≤ 0.2
AMRC	≤ 0.2
RNKH	0.219
CERS	≤ 0.2
EMKC	≤ 0.2
RVDF	≤ 0.2
HSSQ	≤ 0.2
QSFG	≤ 0.2
GWPS	≤ 0.2
RELE	≤ 0.2
DTFA	≤ 0.2
FWAG	≤ 0.2
FAHG	≤ 0.2
RSDA	0.515
DHIC	≤ 0.2
RAEN	0.337
QSNP	≤ 0.2
LQDG	≤ 0.2
CAPG	≤ 0.2
LCDI	≤ 0.2
GSRF	≤ 0.2
TCPF	≤ 0.2
GLAV	≤ 0.2

Variant	one-hybrid fitness for binding parS DNA
CRQR	≤ 0.2
YQAL	≤ 0.2
PMRY	≤ 0.2
SRCN	≤ 0.2
HMCA	≤ 0.2
PTNS	≤ 0.2
MTLL	≤ 0.2
DICV	≤ 0.2
NCIC	≤ 0.2
SMNN	≤ 0.2
LTTQ	≤ 0.2
TRTI	≤ 0.2
KGDM	≤ 0.2
TRDA	≤ 0.2
RVKQ	≤ 0.2
APVH	≤ 0.2
QLYT	≤ 0.2
RNSY	0.399
PNRL	≤ 0.2
KTWS	≤ 0.2
HGPC	≤ 0.2
AYMF	≤ 0.2
VENS	≤ 0.2
